In the supplement of paper PMC12217912:
The other results are listed elsewhere or left out. Sequences were assembled here from the parent chain. Values near 0.05 are background.

B1: TEV protease; numbered along this chain (parent)
chain: MGESLFKGPRDYNPISSSICHLTNESDGHTTSLYGIGFGPFIITNKHLFRRNNGTLVVQSLHGVFKVKDTTTLQQHLVDGRDMIIIRMPKDFPPFPQKLKFREPQREERICLVTTNFQTKSMSSMVSDTSCTFPSGDGIFWKHWIQTKDGQCGSPLVSTRDGFIVGIHSASNFTNTNNYFTSVPKNFMELLTNQEAQQWVSGWRLNADSVLWGGHKVFMVKPEEPFQPVKEATQL

Variants of: B1
Assay: raw area under fraction-flipped curve 0-4 h after induction (AUC4h, not background-subtracted), DNA-recorder readout of cleavage of the substrate (dimensionless); higher = more cleavage of the substrate by the protease variant
Settings: temperature: 34 °C; time window: 0-4 h after rhamnose induction
Experimental: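 In vivo DNA recorder in E. coli TOP10(DE3) ΔrhaA at 34 °C. Each TEVp single-site mutant (parent TEVp 0) is paired with a single-site variant of the 7-mer TEVs (canonical ENLYFQ|S). The substrate sits between flexible linkers in a Bxb1-sfGFP-TEVs-SsrA fusion, so cleavage stabilises Bxb1 and speeds flipping of a recombination array, read by NGS. The value is the raw area under the fraction-flipped curve over 0-4 h after rhamnose induction (AUC4h), with ≥20 reads per time point. It is not background-subtracted; inactive controls average about 0.047.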
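Note: Bxb1 expression induced with 0.2% (w/v) L-rhamnose at OD600 near 0.5, cultures sampled hourly, flipped fraction per protease–substrate barcode pair counted by paired-end Illumina sequencing.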

Variant | area with substrate ENLAFQS | area with substrate ENLEFQS | area with substrate ENLFFQS | area with substrate ENLHFQS | area with substrate ENLKFQS | area with substrate ENLMFQS | area with substrate ENLNFQS | area with substrate ENLPFQS | area with substrate ENLQFQS | area with substrate ENLRFQS | area with substrate ENLSFQS | area with substrate ENLVFQS | area with substrate ENLWFQS | area with substrate ENLDFQS | area with substrate ENLGFQS | area with substrate ENLIFQS | area with substrate ENLLFQS | area with substrate ENLTFQS | area with substrate ENLCFQS
Q194H | 0.0548 | 0.055 | 0.114 | 0.0574 | 0.072 | 0.0698 | 0.0795 | 0.0539 | 0.0859 | 0.0853 | 0.0858 | 0.0812 | 0.0733 |  |  |  |  |  | 
K230S | 0.087 | 0.0569 | 0.0888 | 0.0674 | 0.0594 |  | 0.0746 |  | 0.0653 | 0.0721 | 0.0681 | 0.0907 | 0.0637 | 0.0658 | 0.0853 | 0.086 | 0.0735 | 0.0558 | 
V229Q | 0.0778 |  | 0.072 | 0.0729 | 0.0873 |  | 0.0715 | 0.0822 | 0.051 |  | 0.0413 | 0.0968 |  | 0.0624 | 0.0647 | 0.0788 | 0.059 |  | 0.056
T233M | 0.0549 | 0.0632 | 0.0772 | 0.0647 | 0.0681 |  | 0.0808 | 0.0913 | 0.118 | 0.0794 | 0.0662 | 0.0814 | 0.0763 | 0.0595 | 0.0394 |  | 0.0556 |  | 0.0741
T233E | 0.0643 |  |  |  | 0.0859 |  |  |  | 0.0455 |  |  |  |  | 0.0638 | 0.0659 |  |  |  | 0.0835
I15P |  |  | 0.1 | 0.0793 | 0.0708 |  | 0.0518 |  |  | 0.0685 | 0.0584 |  | 0.0651 | 0.0617 | 0.0783 | 0.0776 | 0.0631 | 0.0581 | 0.0345
T23A |  |  |  | 0.0555 | 0.08 |  | 0.0643 | 0.0654 | 0.0663 |  | 0.0634 |  | 0.0424 | 0.0653 |  | 0.0682 | 0.0718 |  | 0.0626
Q227W | 0.0459 |  |  | 0.0833 | 0.0785 | 0.0677 | 0.0782 |  | 0.0761 |  |  |  | 0.0404 | 0.0579 |  | 0.0708 |  | 0.0684 | 
V220G | 0.0593 | 0.0591 | 0.0862 | 0.0702 | 0.107 | 0.0752 |  |  | 0.0629 |  | 0.0624 | 0.0906 |  | 0.0635 | 0.0602 | 0.0938 | 0.0812 | 0.0664 | 0.0488
L22C |  |  | 0.0776 | 0.0627 | 0.103 | 0.0551 | 0.05 | 0.0522 | 0.0908 |  | 0.074 | 0.0671 |  | 0.0668 | 0.0706 |  |  |  | 0.066
L22Y |  | 0.0483 | 0.054 | 0.0404 | 0.0539 |  | 0.0482 | 0.0463 | 0.0607 |  | 0.0531 |  | 0.0477 | 0.0556 | 0.0574 | 0.0519 | 0.0604 |  | 0.0467
L22D |  | 0.0576 | 0.0538 | 0.0398 | 0.0499 | 0.0466 | 0.048 |  | 0.0437 | 0.0467 | 0.0541 |  | 0.0457 | 0.0488 |  | 0.0611 |  |  | 0.0472
W199F | 0.118 | 0.0637 | 0.0667 | 0.0752 | 0.0648 |  |  |  |  | 0.068 |  |  |  | 0.0535 | 0.0714 | 0.0723 | 0.0509 |  | 
W199P | 0.0557 |  | 0.075 | 0.0737 | 0.0804 | 0.0911 |  |  | 0.0633 | 0.0749 |  |  |  | 0.0664 |  | 0.0675 |  |  | 0.063
